The source of these data is publication PMC10164576, “Interaction with the carboxy-terminal tip of SSB is critical for RecG function in E. coli” (Nucleic Acids Research, 2023).

Sequences of proteins named here, by UniProt entry; tags and fusion partners are left off.
UniProt P0AGE0: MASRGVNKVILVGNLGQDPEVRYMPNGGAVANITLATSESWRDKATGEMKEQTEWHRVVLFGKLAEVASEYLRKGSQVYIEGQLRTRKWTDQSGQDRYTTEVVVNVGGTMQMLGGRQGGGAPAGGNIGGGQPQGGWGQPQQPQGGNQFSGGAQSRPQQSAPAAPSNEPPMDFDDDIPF

Common to all, as to assay: two-hybrid; Gal4 DNA-binding domain (pGBD) and activation domain (pGAD) fusions in S. cerevisiae pJ69-4a; growth on SD His- and Ade-deficient plates, 30°C, 4-5 days
Assay [1] addresses T1, RecG F75A Gal4 hybrid (E. coli) (UniProt P24230).
T1 sequence: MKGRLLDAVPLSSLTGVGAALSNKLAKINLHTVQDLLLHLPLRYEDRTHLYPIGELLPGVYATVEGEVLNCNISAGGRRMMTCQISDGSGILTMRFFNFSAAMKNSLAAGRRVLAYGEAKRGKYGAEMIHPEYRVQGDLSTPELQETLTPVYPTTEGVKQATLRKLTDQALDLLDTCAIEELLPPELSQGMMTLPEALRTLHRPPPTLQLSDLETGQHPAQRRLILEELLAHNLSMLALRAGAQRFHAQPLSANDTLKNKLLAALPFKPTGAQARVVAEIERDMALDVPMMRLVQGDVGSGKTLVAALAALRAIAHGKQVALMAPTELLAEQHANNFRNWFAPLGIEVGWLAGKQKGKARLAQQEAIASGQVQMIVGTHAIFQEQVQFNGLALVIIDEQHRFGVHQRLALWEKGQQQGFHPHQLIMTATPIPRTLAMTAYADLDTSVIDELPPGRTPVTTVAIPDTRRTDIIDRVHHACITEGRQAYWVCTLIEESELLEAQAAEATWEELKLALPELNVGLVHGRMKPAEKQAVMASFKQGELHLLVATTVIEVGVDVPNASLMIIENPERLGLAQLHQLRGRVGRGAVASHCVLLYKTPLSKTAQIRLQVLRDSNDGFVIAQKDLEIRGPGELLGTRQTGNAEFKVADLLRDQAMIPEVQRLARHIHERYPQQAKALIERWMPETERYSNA

The target in assay [2] is T2, RecG M80A Gal4 hybrid (E. coli) (UniProt P24230).
T2 sequence: T1 sequence with A75F, M80A

Assay [3] has as its target T3, RecG R467E Gal4 hybrid (E. coli) (UniProt P24230).
T3 sequence: T1 sequence with A75F, R467E

Where a chain is given by its changes, count along the chain named. These are yes or no findings as the source states them, for the method shown. Some binding calls cover weakened binding; strength is not graded here.

Turning to “SSB Gal4 hybrid (from UniProt P0AGE0 1-178)”, the binding entry is “binds” in assay [1], “binds” in assay [2] and “no binding” in assay [3].
